# PubChem BioAssay (Tox21)
# Several values for one entry are separate records, joined by “and”; a condition that tells them apart may be missing. Identical values can stand only once. Activity calls are given as the source filed them. Unless noted, calls come from the whole dose curve; as a rule, active = well fitted curve in the direction sought with a large enough effect in the repeat runs; inconclusive = weak or mixed curves; inactive = no such curve, though single readings can be large; an effect the other way counts as inactive or inconclusive.
# Key:
# [1] = qHTS assay for small molecules that induce genotoxicity in human embryonic kidney cells expressing luciferase-tagged ATAD5 (AID 651632); note: nearly all actives have a fitted effect of over 15% in size; note: potency is the fitted concentration of half-maximal effect; for activation: % is set by controls: 0 for no effect and ±100 for the full control effect
# Method in brief: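 Increased luciferase signal from ATAD5-tagged reporter cells indicates DNA-damage-driven ATAD5 induction. HEK293T cells are treated for 16 hr at 37C before detection with Amplite.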
# [2] = qHTS assay for small molecule disruptors of the mitochondrial membrane potential (AID 720635); conditions: HepG2 mitochondrial membrane potential, Mito-MPS dye ratio; ratio activity, negative = MMP loss: at 83.2 µM (top of the series) unless noted; note: potency is the fitted concentration of half-maximal effect
# Method in brief: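 HepG2 cells exposed to compound 1 hr at 37C, then Mito-MPS dye 30 min. Ratio read of aggregate (540/590 nm) versus monomer (490/535 nm) fluorescence.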
# [3] = target: Glucocorticoid receptor (Homo sapiens) (UniProt P04150); assay: qHTS assay to identify small molecule agonists of the glucocorticoid receptor (GR) signaling pathway (AID 720691; active = well fitted activation curve with a large enough effect in the signal ratio in the repeat runs, not every such curve was filed as active; inconclusive = weak or mixed curves, or effect the other way; inactive = no such curve, though single readings can be large or run the other way; the % refers to the signal ratio; note: potency is the fitted concentration of half-maximal effect); conditions: GR-bla HeLa, beta-lactamase reporter ratio, 18 h; activation: at 62.4 µM (top of the series) unless noted
# Method in brief: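 Agonist mode in a HeLa line carrying a GRE-controlled beta-lactamase reporter. Compounds act for 18 h at 37 C before a 2 h room-temperature FRET substrate step and fluorescence reading.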
# [4] = target: Glucocorticoid receptor (Homo sapiens) (UniProt P04150); assay: qHTS assay to identify small molecule antagonists of the glucocorticoid receptor (GR) signaling pathway (AID 720692; active = well fitted inhibition curve with a large enough effect in the signal ratio in the repeat runs, not every such curve was filed as active; inconclusive = weak or mixed curves, or effect the other way; inactive = no such curve, though single readings can be large or run the other way; the % refers to the signal ratio; note: potency is the fitted concentration of half-maximal effect); conditions: GR-bla HeLa, beta-lactamase FRET ratio, dexamethasone-stimulated, 18 h; activity change, negative = inhibition: at 58.5 µM (top of the series) unless noted
# Method in brief: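 Cells plated, rested 4 h at 37 C/5% CO2; compounds in DMSO pin-transferred; dexamethasone added to 5 nM final; 18 h at 37 C; B/G FRET substrate added, 2 h room temperature; fluorescence measured.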
# [5] = qHTS assay to identify small molecule antagonists of the glucocorticoid receptor (GR) signaling pathway - cell viability counter screen (AID 720693); conditions: GR-bla HeLa viability, CellTiter-Glo luminescence, 18 h, with 5 nM dexamethasone present; viability change, negative = cytotoxic: at 58.5 µM (top of the series); note: nearly all actives have a fitted effect of over 55% in size; note: potency is the fitted concentration of half-maximal effect
# [6] = qHTS assay for identifying genotoxic compounds that show differential cytotoxicity against isogenic chicken DT40 cell lines with known DNA damage response pathways - Rev3 mutant cell line (AID 743014); conditions: chicken DT40 Rev3-/- viability, CellTiter-Glo, 40 h; activity, negative = cytotoxicity: at 68.4 µM (top of the series) unless noted; note: potency is the fitted concentration of half-maximal effect; nearly all actives have a fitted effect of over 55% in size
# [7] = qHTS assay to identify small molecule antagonists of the androgen receptor (AR) signaling pathway - cell viability counter screen (AID 743033; note: potency is the fitted concentration of half-maximal effect; nearly all actives have a fitted effect of over 45% in size); conditions: AR-bla HEK293 viability, CellTiter-Glo luminescence, 16 h; activity change, negative = cytotoxicity: at 58.5 µM (top of the series) unless noted
# [8] = qHTS assay to identify small molecule antagonists of the androgen receptor (AR) signaling pathway using the MDA cell line - cell viability counter screen (AID 743041; note: nearly all actives have a fitted effect of over 45% in size; note: potency is the fitted concentration of half-maximal effect); conditions: MDA-kb2 viability, CellTiter-Fluor, 16 h, cells co-treated with R1881 androgen agonist; viability change, negative = cytotoxic: at 70.3 µM (top of the series)
# Method in brief: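 Same-well cytotoxicity was assessed by CellTiter-Fluor in MDA-kb2 AR-luc cells after 16 h of compound treatment under R1881 agonism.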
# [9] = target: Estrogen receptor (Homo sapiens) (UniProt P03372); assay: qHTS assay to identify small molecule antagonists of the estrogen receptor alpha (ER-alpha) signaling pathway (AID 743069; active = well fitted curve in the direction sought with a large enough effect in the signal ratio in the repeat runs, not every such curve was filed as active; inconclusive = weak or mixed curves, or effect the other way; inactive = no such curve, though single readings can be large or run the other way; the % refers to the signal ratio; note: potency is the fitted concentration of half-maximal effect); conditions: HEK293 ER-alpha-UAS-bla, beta-lactamase ratio, antagonist mode; activity, negative = inhibition: at 69.4 µM (top of the series) unless noted
# Method in brief: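 Reporter cells (ER-alpha-bla, HEK293 background) are conditioned overnight in stripped-serum medium (2% charcoal-stripped FBS). Compound and 17beta-estradiol exposure runs 18 hr at 37C, 5% CO2.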
# [10] = target: Estrogen receptor (Homo sapiens) (UniProt P03372); assay: qHTS assay to identify small molecule agonists of the estrogen receptor alpha (ER-alpha) signaling pathway (AID 743075; calls by dose curve;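 note: HEK293 GripTite cells with ER-alpha and UAS-driven beta-lactamase reporter; potency is the fitted concentration of half-maximal effect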); conditions: HEK293 ER-alpha-UAS-bla, beta-lactamase FRET ratio, 18 h; activation: at 70.1 µM (top of the series)
# [11] = qHTS assay to identify small molecule antagonists of the estrogen receptor alpha (ER-alpha) signaling pathway using the BG1 cell line (AID 743080; calls by dose curve;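 note: BG1 cells stimulated with 17beta-estradiol alongside compound; potency is the fitted concentration of half-maximal effect; nearly all actives have a fitted effect of over 25% in size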); conditions: BG1Luc4E2 ERE-luciferase antagonist mode, luminescence; activity change, negative = inhibition: at 70.3 µM (top of the series) unless noted
# Method in brief: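 BG1Luc4E2, endogenous ER-alpha, 4xERE-luc; 5 d charcoal-stripped FBS, phenol red free; 24 h plating; cpd + 17beta-estradiol 21.5 h, 37 C/5% CO2; CellTiter-Fluor viability 30 min, then ONE-Glo luciferase 30 min RT.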
# [12] = qHTS assay to identify small molecule antagonists of the estrogen receptor alpha (ER-alpha) signaling pathway using the BG1 cell line - cell viability counter screen (AID 743081); conditions: BG1Luc4E2 viability, CellTiter-Fluor, 22 h; activity change, negative = cytotoxicity: at 70.3 µM (top of the series) unless noted;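 note: compound given together with 17beta-estradiol as the ER stimulus; potency is the fitted concentration of half-maximal effect; nearly all actives have a fitted effect of over 45% in size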
# [13] = target: Aryl hydrocarbon receptor (Homo sapiens) (UniProt P35869); assay: qHTS assay to identify small molecule that activate the aryl hydrocarbon receptor (AhR) signaling pathway (AID 743085); note: nearly all actives have a fitted effect of over 15% in size; note: potency is the fitted concentration of half-maximal effect;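 for activation: HG2L7.5c1 human HepG2 liver cells with stably integrated DRE-driven firefly reporter; % is set by controls: 0 for no effect and ±100 for the full control effect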
# Method in brief: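 HepG2 cells stably carrying a 20-DRE firefly luciferase reporter (HG2L7.5c1) treated with compound for 24 hr at 37C. Luciferase read by ONE-Glo luminescence, with CellTiter-Fluor viability read first.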
# [14] = qHTS assay to identify small molecule that activate the aryl hydrocarbon receptor (AhR) signaling pathway - cell viability counter screen (AID 743086); note: potency is the fitted concentration of half-maximal effect; nearly all actives have a fitted effect of over 45% in size
# Method in brief: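 HepG2-AhR-luc (HG2L7.5c1) cells, 4000/well, treated 24 h at 37 C with compound; viability measured as CellTiter-Fluor fluorescence after 30 min in the same wells as the luciferase read.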
# [15] = target: Peroxisome proliferator-activated receptor gamma (Homo sapiens) (UniProt P37231); assay: qHTS assay to identify small molecule agonists of the peroxisome proliferator-activated receptor gamma (PPARg) signaling pathway (AID 743094; active = well fitted activation curve with a large enough effect in the signal ratio in the repeat runs, not every such curve was filed as active; inconclusive = weak or mixed curves, or effect the other way; inactive = no such curve, though single readings can be large or run the other way; the % refers to the signal ratio; note: potency is the fitted concentration of half-maximal effect); conditions: HEK293H PPARg-UAS-bla, beta-lactamase FRET ratio, 17 h; activation: at 57 µM (top of the series) unless noted
# Method in brief: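 Quantitative HTS agonist mode: stable HEK293H line with UAS-beta-lactamase reporter under PPARg control, 17 h compound exposure at 37C, fluorescence after 1 h FRET substrate loading at room temperature.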
# [16] = qHTS assay for small molecule agonists of the p53 signaling pathway (AID 651631; calls by dose curve; note: % is set by controls: 0 for no effect and ±100 for the full control effect; nearly all actives have a fitted effect of over 15% in size); conditions: HCT-116 p53RE-bla reporter, beta-lactamase FRET ratio, 16 h; activation: at 73.3 µM (top of the series) unless noted
# Method in brief: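 HCT-116 cells carrying a beta-lactamase reporter under p53 response elements were dosed with compound for 16 h at 37 °C. LiveBLAzer B/G FRET substrate was then added for 2 h at room temperature, and fluorescence intensity was read to detect pathway agonism.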
# [17] = target: Androgen receptor (Homo sapiens) (UniProt P10275); assay: qHTS assay to identify small molecule antagonists of the androgen receptor (AR) signaling pathway (AID 743035; active = well fitted inhibition curve with a large enough effect in the signal ratio in the repeat runs, not every such curve was filed as active; inconclusive = weak or mixed curves, or effect the other way; inactive = no such curve, though single readings can be large or run the other way; the % refers to the signal ratio; note: % is set by controls: 0 for no effect and ±100 for the full control effect); conditions: HEK293 AR-UAS-bla, R1881-stimulated, beta-lactamase FRET, 16 h; activity change, negative = inhibition: at 58.5 µM (top of the series) unless noted
# Method in brief: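 Antagonism is scored as loss of R1881-driven beta-lactamase reporter expression in HEK293 cells carrying the reporter under a UAS element, after 16 h co-treatment at 37C and a 2 h room-temperature FRET substrate read.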
# [18] = qHTS assay to identify small molecule antagonists of the thyroid receptor (TR) signaling pathway - cell viability counter screen (AID 743064); conditions: GH3.TRE-Luc viability, CellTiter-Fluor, 24 h; activity change, negative = cytotoxic: at 70.3 µM (top of the series) unless noted; note: potency is the fitted concentration of half-maximal effect; nearly all actives have a fitted effect of over 50% in size
# Method in brief: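 GH3.TRE-Luc rat pituitary cells dosed after 4 hr plating, co-stimulated with T3 at 1 nM final, incubated 23.5 h at 37 C. Viability measured in the same wells by CellTiter-Fluor fluorescence after 30 min further at 37 C.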
# [19] = target: Estrogen receptor (Homo sapiens) (UniProt P03372); assay: qHTS assay to identify small molecule agonists of the estrogen receptor alpha (ER-alpha) signaling pathway using the BG1 cell line (AID 743079); conditions: BG1Luc4E2 cells, ERE-luciferase agonist, 22 h; note: % is set by controls: 0 for no effect and ±100 for the full control effect; nearly all actives have a fitted effect of over 20% in size
# [20] = qHTS assay to identify small molecule antagonists of the estrogen receptor alpha (ER-alpha) signaling pathway - cell viability counter screen (AID 743074; calls by dose curve)
# [21] = qHTS assay for small molecule agonists of the p53 signaling pathway - cell viability (AID 651633; calls by dose curve; note: potency is the fitted concentration of half-maximal effect; nearly all actives have a fitted effect of over 30% in size)
# Method in brief: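 p53RE-bla cells were treated with compound for 16 hours at 37 C. Cytotoxicity was then measured as CellTiter-Glo luminescence after 30 min at room temperature.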
# [22] = qHTS assay for identifying genotoxic compounds that show differential cytotoxicity against isogenic chicken DT40 cell lines with known DNA damage response pathways - wild type cell line (AID 743012); conditions: DT40 wild type chicken cells viability, CellTiter-Glo, 40 h; activity change, negative = cytotoxicity: at 68.4 µM (top of the series) unless noted; note: potency is the fitted concentration of half-maximal effect; nearly all actives have a fitted effect of over 60% in size
# Method in brief: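 Cells (DT40 wild type, 300/well) are treated with DMSO-dissolved compounds after a ~0.5 h pre-incubation and kept 40 h at 37 C/5% CO2. Viability is then measured by CellTiter-Glo luminescence following 30 min at room temperature.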
# [23] = target: Androgen receptor (Homo sapiens) (UniProt P10275); assay: qHTS assay to identify small molecule agonists of the androgen receptor (AR) signaling pathway (AID 743036; active = well fitted activation curve with a large enough effect in the signal ratio in the repeat runs, with a control signal flat, not every such curve was filed as active; inconclusive = weak or mixed curves, or effect the other way; inactive = no such curve, though single readings can be large or run the other way; the % refers to the signal ratio; note: % is set by controls: 0 for no effect and ±100 for the full control effect); conditions: HEK293 AR-UAS-bla GripTite, beta-lactamase FRET ratio, 16 h; activation: at 62.4 µM (top of the series) unless noted
# Method in brief: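 AR-UAS-bla HEK293 cells, plated 4 h before dosing, were treated with compound for 16 h at 37C. beta-Lactamase reporter read after 2 h with LiveBLAzer B/G FRET substrate at room temperature.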
# Aromatase (Homo sapiens) = Aromatase (Homo sapiens) (UniProt P11511); assay: qHTS assay to identify aromatase inhibitors (AID 743083); note: potency is the fitted concentration of half-maximal effect; nearly all actives have a fitted effect of over 55% in size
# [24] = qHTS assay to identify aromatase inhibitors - cell viability counter screen (AID 743084); conditions: MCF-7 aro ERE viability, CellTiter-Fluor, 24 h; activity change, negative = cytotoxicity: at 70.3 µM (top of the series) unless noted;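 note: cells stimulated with testosterone during compound exposure; potency is the fitted concentration of half-maximal effect; nearly all actives have a fitted effect of over 55% in size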
# [25] = activation: at 70.3 µM (top of the series) unless noted
# Tags give direction and shape of the fitted curve or compound fluorescence and quenching.
# Chain of UniProt P37231 (P37231 whole entry, looked up): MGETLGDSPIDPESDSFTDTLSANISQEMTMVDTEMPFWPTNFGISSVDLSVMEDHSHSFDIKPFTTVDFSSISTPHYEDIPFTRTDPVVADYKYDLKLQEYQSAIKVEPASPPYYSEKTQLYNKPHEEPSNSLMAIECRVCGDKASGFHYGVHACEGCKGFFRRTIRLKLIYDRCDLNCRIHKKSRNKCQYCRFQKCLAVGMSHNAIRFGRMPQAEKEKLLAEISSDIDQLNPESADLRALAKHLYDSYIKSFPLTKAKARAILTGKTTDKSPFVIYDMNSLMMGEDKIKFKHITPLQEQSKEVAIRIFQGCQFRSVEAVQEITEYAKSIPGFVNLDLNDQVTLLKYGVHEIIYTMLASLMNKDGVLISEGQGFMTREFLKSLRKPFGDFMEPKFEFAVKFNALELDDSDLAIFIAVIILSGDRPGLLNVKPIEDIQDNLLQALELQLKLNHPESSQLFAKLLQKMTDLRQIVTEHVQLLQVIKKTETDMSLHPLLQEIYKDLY
# Chain of UniProt P03372 (P03372 whole entry, looked up): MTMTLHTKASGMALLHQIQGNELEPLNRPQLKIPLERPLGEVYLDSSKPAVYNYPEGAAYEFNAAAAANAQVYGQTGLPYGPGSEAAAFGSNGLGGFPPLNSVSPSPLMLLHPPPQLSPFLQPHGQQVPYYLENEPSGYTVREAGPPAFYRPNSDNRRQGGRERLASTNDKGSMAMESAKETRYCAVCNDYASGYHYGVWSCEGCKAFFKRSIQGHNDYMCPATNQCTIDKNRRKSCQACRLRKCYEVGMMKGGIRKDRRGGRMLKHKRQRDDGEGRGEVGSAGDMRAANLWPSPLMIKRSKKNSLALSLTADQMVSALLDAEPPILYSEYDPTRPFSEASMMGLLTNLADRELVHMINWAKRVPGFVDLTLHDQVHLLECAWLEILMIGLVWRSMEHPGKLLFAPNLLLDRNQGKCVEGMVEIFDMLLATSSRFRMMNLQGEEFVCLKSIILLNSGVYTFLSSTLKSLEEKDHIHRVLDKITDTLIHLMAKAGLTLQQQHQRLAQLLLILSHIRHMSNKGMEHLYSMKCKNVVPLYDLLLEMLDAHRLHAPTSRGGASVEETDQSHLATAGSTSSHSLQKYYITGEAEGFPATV
# Chain of UniProt P04150 (P04150 whole entry, looked up): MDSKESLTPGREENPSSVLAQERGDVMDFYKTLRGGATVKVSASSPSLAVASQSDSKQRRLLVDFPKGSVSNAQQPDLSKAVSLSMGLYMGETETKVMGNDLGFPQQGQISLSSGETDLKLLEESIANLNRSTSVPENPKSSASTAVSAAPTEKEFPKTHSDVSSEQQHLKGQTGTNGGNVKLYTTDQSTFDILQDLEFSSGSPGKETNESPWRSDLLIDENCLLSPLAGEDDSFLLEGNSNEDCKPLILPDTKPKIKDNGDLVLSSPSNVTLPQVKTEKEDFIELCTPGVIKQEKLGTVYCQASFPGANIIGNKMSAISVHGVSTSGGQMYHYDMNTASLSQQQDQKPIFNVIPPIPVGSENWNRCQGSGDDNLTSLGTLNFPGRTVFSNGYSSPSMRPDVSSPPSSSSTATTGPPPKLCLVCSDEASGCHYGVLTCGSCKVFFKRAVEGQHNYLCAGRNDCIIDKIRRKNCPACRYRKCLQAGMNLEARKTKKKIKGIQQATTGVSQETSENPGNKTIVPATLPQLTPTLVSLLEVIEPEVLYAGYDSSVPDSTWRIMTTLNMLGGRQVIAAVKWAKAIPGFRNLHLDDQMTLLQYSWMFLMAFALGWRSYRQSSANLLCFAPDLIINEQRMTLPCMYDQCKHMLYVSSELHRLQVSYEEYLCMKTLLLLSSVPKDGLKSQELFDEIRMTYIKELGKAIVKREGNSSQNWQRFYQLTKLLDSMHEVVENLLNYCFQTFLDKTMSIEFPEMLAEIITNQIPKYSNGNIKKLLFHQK
# Chain of UniProt P35869 (P35869 whole entry, looked up): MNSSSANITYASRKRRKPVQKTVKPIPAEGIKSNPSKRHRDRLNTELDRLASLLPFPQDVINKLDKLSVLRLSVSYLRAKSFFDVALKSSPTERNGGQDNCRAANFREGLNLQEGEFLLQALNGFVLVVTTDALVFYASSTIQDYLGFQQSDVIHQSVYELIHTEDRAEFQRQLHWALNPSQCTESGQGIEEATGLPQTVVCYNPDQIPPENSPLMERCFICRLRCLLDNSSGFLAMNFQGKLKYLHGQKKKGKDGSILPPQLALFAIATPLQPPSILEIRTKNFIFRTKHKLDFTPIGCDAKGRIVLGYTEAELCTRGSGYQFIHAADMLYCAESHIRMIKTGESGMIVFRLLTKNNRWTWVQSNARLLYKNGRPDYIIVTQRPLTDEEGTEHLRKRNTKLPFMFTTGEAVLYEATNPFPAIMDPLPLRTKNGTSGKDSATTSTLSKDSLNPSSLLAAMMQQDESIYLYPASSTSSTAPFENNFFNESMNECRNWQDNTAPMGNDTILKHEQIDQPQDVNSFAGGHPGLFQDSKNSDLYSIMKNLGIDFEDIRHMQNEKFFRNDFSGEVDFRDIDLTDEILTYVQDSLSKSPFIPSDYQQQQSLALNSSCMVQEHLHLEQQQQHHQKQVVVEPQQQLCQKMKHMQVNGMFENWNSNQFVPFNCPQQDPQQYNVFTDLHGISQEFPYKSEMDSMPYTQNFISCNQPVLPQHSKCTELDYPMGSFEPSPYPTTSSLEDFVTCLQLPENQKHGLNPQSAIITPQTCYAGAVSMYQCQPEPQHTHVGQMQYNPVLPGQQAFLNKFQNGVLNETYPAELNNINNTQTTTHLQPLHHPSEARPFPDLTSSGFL
# Chain of UniProt P10275 (P10275 whole entry, looked up): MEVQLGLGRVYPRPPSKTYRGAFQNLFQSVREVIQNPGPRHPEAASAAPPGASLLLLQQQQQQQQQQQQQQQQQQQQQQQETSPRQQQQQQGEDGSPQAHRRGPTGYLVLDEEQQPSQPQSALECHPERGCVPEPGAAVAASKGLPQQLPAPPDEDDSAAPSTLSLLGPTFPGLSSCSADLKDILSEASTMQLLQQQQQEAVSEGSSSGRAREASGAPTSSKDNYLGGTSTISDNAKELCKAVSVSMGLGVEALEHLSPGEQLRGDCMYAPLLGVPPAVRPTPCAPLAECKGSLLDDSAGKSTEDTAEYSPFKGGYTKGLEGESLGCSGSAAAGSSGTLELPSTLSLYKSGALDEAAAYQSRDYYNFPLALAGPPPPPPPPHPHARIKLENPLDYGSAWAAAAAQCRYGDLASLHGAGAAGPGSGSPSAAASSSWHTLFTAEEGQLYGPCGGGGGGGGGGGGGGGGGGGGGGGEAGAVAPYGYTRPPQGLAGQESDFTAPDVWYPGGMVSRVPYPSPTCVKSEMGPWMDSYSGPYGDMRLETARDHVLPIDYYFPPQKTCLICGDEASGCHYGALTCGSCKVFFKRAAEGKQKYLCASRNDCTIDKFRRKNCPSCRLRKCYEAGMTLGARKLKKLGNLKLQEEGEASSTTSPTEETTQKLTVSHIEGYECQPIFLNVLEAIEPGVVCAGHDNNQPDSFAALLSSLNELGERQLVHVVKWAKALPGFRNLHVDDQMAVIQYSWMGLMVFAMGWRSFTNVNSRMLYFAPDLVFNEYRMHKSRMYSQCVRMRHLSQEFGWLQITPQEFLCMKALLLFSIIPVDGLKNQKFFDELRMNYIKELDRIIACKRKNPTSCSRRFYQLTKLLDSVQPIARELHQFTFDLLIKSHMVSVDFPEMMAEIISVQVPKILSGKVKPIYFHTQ
# Chain of UniProt P11511 (P11511 whole entry, looked up): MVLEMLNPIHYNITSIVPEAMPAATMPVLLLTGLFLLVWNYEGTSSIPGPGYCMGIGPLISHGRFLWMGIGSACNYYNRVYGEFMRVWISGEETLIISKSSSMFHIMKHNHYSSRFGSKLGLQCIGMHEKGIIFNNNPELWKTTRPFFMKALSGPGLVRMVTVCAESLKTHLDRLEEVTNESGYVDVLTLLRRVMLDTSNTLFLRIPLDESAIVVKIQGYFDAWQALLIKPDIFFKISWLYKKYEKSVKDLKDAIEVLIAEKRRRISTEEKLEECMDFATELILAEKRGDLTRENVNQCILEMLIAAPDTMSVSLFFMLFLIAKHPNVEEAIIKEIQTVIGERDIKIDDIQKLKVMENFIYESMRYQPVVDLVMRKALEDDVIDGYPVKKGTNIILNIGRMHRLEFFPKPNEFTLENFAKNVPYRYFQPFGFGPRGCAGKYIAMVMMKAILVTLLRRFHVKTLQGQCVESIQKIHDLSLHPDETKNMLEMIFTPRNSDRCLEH
smiles,measurement,setting,value
CC[C@@]1(O)C[C@H](O[C@H]2C[C@H](N(C)C)[C@H](O[C@H]3C[C@H](O)[C@H](O[C@H]4CCC(=O)[C@H](C)O4)[C@H](C)O3)[C@H](C)O2)c2c(cc3c(c2O)C(=O)c2c(O)cccc2C3=O)[C@H]1C(=O)OC,Potency,[1],"inconclusive: 0.237 µM [activator, partial curve]"
same,Potency,[2],active: 1.68 µM
same,Potency,[3],active: 10.7 µM [inconclusive]
same,Potency,[4],"inconclusive: 19 µM [cytotoxic, partial curve]"
same,Potency,[5],active: 2.39 µM
same,Potency,[6],active: 0.0531 µM
same,Potency,[7],"inconclusive: 0.301 µM [cytotoxic, full curve, poor fit]"
same,Potency,[8],"inconclusive: 1.06 µM [cytotoxic, full curve]"
same,Potency,[9],active: 6.01 µM [inconclusive]
same,Potency,[10],"inconclusive: 19 µM [fluorescent, partial curve]"
same,Potency,[11],"inconclusive: 0.237 µM [rising, full curve, poor fit]"
same,Potency,[12],"inconclusive: 15 µM [cytotoxic, partial curve]"
same,Potency,[13],"inconclusive: 1.19 µM [activator, full curve, poor fit]"
same,Potency,[14],active: 0.668 µM
same,Potency,[15],"inconclusive: 1.2 µM [inhibitor, full curve]"
C=CC1=C(C(=O)O)N2C(=O)[C@@H](NC(=O)/C(=N\O)c3csc(N)n3)[C@H]2SC1 (stereo in doubt),Potency,[16],inactive
same,Potency,[6],"inconclusive: 29.8 µM [rising, partial curve, poor fit]"
same,Potency,[17],inactive
same,Potency,[18],"inconclusive: 7.5 µM [rising, single point]"
same,Potency,[12],"inconclusive: 11.9 µM [cytotoxic, single point]"
CCCCc1cc2c(=O)c(C(=O)OC)c[nH]c2cc1OCc1ccccc1,Potency,[1],inactive
same,Potency,[18],"inconclusive: 7.5 µM [rising, single point]"
same,Potency,[12],"inconclusive: 33.5 µM [cytotoxic, single point]"
same,Potency,[13],inactive
COC(=O)CCC[N+](C)(C)C,activation,[16],inconclusive: -3.96%
same,Potency,[6],"inconclusive: 37.6 µM [rising, partial curve, poor fit]"
same,Potency,[8],inactive
Cc1cc(C(=O)NCCc2ccc(S(=O)(=O)NC(=O)NN3CCCCCC3)cc2)no1,Potency,[16],inactive
same,Potency,[17],inactive
same,Potency,[13],"inconclusive: 16.8 µM [activator, partial curve]"
same,Potency,[15],inactive
CC(C)(C)c1ccc2c(S(=O)(=O)O)c(C(C)(C)C)ccc2c1,Potency,[1],inactive
same,Potency,[3],inactive
same,"activity change, negative = inhibition",[4],inconclusive: -26.2%
same,Potency,[9],"inconclusive: 3.09 µM [fluorescent, full curve]"
same,activation,[19]; [25],inconclusive: -12.3% [phenotype inactive]
same,activation,[19]; at 70.3 µM (top of the series),inactive: -0.2%
same,Potency,[15],active: 9.52 µM and inconclusive: 4.36 µM [activator]
C[C@]12C=CC(=O)C=C1CC[C@@H]1[C@@H]2[C@@H](O)C[C@@]2(C)[C@H]1CC[C@]2(O)C(=O)COC(=O)CCC(=O)O,Potency,[1],"inconclusive: 0.168 µM [activator, full curve, poor fit]"
same,Potency,[3],active: 0.268 µM [inconclusive]
same,Potency,[4],"inconclusive: 0.952 µM [activator, full curve]"
same,Potency,[9],"inconclusive: 0.107 µM [activator, full curve]"
same,Potency,[20],inactive
same,activation,[19]; [25],inconclusive: 9.46% [phenotype inactive]
same,Potency,[11],"inconclusive: 0.119 µM [rising, full curve]"
same,Potency,[12],"inconclusive: 5.96 µM [cytotoxic, partial curve, poor fit]"
same,Potency,[13],"inconclusive: 10.6 µM [activator, partial curve]"
NC(=S)N=Nc1ccc(NN=C(N)N)cc1,Potency,[21],"inconclusive: 21.1 µM [cytotoxic, partial curve]"
same,Potency,[2],active: 2.98 µM
same,Potency,[5],inactive
same,Potency,[22],active: 2.66 µM
same,Potency,[7],"inconclusive: 0.0067 µM [cytotoxic, full curve, poor fit]"
same,"activity change, negative = inhibition",[17],inconclusive: -33.4%
same,Potency,[23],inactive
same,Potency,[9],"inconclusive: 15.1 µM [rising, partial curve, poor fit]"
same,Potency,[12],active: 26.6 µM
same,Potency,Aromatase (Homo sapiens),"inconclusive: 23.7 µM [inhibitor, partial curve]"
same,Potency,[24],active: 23.7 µM
same,activation,[15],inconclusive: -16.6%
